Our source for the binding values is article PMC11060728.

Sequences of proteins named here, by UniProt entry; tags and fusion partners are left off. A change or cut given only in a name is not applied to a line headed by its entry. A line that says so, or that is headed by a name, gives the form on record, which may keep a tag or linker.
UniProt Q5QD51: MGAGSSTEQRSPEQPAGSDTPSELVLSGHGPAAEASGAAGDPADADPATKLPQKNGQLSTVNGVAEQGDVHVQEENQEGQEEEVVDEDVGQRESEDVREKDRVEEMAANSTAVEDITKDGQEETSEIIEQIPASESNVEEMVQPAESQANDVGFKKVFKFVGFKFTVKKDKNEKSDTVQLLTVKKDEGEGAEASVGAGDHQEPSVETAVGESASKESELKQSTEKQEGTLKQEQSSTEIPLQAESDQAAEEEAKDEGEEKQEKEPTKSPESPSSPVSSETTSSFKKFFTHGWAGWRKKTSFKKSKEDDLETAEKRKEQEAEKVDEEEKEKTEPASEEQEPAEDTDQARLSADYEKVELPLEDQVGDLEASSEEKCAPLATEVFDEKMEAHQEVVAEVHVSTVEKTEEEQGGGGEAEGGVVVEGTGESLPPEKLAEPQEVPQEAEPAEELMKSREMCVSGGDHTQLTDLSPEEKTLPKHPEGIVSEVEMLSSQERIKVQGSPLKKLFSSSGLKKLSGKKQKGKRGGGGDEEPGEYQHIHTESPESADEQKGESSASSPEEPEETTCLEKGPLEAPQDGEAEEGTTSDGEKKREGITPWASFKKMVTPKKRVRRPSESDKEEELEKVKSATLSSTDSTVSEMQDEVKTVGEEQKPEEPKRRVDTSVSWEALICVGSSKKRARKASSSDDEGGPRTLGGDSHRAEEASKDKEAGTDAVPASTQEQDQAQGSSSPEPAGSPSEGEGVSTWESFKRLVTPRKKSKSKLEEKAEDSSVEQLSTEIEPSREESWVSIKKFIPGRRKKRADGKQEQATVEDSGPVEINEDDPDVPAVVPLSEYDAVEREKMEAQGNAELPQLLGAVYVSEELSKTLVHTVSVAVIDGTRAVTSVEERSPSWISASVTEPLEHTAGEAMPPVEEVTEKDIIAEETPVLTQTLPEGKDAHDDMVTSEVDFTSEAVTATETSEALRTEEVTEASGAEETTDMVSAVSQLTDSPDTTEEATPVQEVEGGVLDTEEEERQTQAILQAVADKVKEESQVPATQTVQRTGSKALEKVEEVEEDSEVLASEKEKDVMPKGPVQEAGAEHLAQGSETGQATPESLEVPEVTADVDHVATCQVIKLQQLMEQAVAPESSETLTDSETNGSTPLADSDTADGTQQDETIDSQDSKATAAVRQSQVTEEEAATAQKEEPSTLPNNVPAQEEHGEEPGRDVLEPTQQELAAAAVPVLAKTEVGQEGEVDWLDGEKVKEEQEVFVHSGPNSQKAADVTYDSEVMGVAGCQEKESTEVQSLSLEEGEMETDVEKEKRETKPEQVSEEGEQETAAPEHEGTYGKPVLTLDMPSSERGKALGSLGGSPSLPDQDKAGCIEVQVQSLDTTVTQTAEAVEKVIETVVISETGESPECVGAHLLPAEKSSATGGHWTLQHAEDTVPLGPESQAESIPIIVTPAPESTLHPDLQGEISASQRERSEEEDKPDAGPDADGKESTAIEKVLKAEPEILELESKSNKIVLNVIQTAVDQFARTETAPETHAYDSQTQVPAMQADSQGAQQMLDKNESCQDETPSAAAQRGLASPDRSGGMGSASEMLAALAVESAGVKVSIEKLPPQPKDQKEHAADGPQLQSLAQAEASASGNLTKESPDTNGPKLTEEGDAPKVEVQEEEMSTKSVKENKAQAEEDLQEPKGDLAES
FLAG-tagged gravin-α (K1502/1505R), myristoylation-deficient (Q5QD51, form named): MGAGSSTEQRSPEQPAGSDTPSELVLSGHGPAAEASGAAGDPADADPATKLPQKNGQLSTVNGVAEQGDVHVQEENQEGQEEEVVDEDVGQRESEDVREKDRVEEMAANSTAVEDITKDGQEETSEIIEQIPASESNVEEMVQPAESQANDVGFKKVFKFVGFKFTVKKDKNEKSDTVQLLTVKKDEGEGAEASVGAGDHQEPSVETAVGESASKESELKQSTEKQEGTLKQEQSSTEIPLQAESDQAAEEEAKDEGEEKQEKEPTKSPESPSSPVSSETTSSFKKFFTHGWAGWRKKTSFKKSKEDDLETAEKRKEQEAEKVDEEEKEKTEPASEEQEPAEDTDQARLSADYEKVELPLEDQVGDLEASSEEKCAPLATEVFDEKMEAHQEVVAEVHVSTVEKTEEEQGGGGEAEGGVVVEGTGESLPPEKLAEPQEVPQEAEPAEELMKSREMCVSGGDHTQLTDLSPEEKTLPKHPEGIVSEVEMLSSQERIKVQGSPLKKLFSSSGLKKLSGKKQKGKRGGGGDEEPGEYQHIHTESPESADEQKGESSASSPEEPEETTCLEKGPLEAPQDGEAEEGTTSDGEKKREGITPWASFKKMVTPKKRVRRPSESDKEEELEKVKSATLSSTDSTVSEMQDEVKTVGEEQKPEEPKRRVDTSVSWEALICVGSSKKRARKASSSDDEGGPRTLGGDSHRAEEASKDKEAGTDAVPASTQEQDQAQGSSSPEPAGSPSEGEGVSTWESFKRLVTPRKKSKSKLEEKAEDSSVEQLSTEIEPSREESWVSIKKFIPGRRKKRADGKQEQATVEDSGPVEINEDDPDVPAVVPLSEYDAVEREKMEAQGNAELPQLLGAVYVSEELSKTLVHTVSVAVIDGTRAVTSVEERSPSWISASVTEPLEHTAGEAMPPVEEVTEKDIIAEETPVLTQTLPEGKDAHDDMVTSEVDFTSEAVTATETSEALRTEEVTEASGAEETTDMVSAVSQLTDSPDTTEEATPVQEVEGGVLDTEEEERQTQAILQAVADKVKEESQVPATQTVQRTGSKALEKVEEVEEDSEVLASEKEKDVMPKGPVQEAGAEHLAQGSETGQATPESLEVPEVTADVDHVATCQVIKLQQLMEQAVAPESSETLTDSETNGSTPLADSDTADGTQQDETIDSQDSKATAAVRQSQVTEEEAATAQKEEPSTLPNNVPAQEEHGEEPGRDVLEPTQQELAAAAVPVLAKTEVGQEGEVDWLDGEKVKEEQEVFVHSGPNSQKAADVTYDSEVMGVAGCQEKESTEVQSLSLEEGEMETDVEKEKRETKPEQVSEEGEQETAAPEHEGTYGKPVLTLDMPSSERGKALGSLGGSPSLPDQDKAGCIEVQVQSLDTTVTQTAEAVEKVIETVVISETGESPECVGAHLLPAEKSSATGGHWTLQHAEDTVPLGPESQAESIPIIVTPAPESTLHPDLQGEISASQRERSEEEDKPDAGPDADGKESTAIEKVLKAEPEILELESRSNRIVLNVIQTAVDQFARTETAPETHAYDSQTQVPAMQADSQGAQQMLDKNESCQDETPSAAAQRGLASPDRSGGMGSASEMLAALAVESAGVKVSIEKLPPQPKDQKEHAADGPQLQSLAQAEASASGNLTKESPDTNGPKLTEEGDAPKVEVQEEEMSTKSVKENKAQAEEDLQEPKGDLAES

The target of test [1] is FLAG-tagged gravin-α (K1502/1505R), myristoylation-deficient (rat) (UniProt Q5QD51). In words: co-IP; 3T3-L1 adipocytes infected with lentiviruses encoding FLAG-tagged gravin-α (WT or K1502/1505R), treated with scrambled peptide, Gravi-D or FT895.
Test [2] deals with FLAG-tagged wild-type (WT) gravin-α (rat) (UniProt Q5QD51). The description is as above.
For test [3], the target named is gravin-α, full-length (WT), epitope-tagged (rat) (UniProt Q5QD51). In words: co-IP; transfected HEK293 cells; Myc-tagged HDAC11 with full-length, truncated or QQ/AA gravin-α.
The target is the same in test [4]. In words: co-IP; HEK293 cells transfected with epitope-tagged gravin-α and HDAC11, treated with Gravi-D, scrambled peptide or Gravi-D (QQ/AA).

Results are given in words; binding and its absence hold for the method and conditions named. In cells and extracts the contact can be indirect. Some entries that bind do so weakly or less than the wild type. For part of these data: Tags and fused reporters may be left off the sequences shown.

B1: caveolin-1 (Cav-1) (protein, UniProt P49817 1-178)
chain: MSGGKYVDSEGHLYTVPIREQGNIYKPNNKAMADEVTEKQVYDAHTKEIDLVNRDPKHLNDDVVKIDFEDVIAEPEGTHSFDGIWKASFTTFTVTKYWFYRLLSTIFGIPMALIWGIYFAILSFLHIWAVVPCIKSFLIEIQCISRVYSIYVHTFCDPLFEAIGKIFSNIRISTQKEI
With B1, the binding entry is “no binding” in test [1] and “binds” in test [2].

B2: Myc-tagged HDAC11 (enzyme, UniProt Q96DB2 1-347)
chain: MLHTTQLYQHVPETRWPIVYSPRYNITFMGLEKLHPFDAGKWGKVINFLKEEKLLSDSMLVEAREASEEDLLVVHTRRYLNELKWSFAVATITEIPPVIFLPNFLVQRKVLRPLRTQTGGTIMAGKLAVERGWAINVGGGFHHCSSDRGGGFCAYADITLAIKFLFERVEGISRATIIDLDAHQGNGHERDFMDDKRVYIMDVYNRHIYPGDRFAKQAIRRKVELEWGTEDDEYLDKVERNIKKSLQEHLPDVVVYNAGTDILEGDRLGGLSISPAGIVKRDELVFRMVRGRRVPILMVTSGGYQKRTARIIADSILNLFGLGLIGPESPSVSAQNSDTPLLPPAVP
Consider B2, for which the binding result in test [3] and in test [4] was “binds” in each case.

B3: flotillin-2 (Flot-2) (protein, UniProt Q60634 1-428)
chain: MGNCHTVGPNEALVVSGGCCGSDYKQYVFGGWAWAWWCISDTQRISLEIMTLQPRCEDVETAEGVALTVTGVAQVKIMTEKELLAVACEQFLGKNVQDIKNVVLQTLEGHLRSILGTLTVEQIYQDRDQFAKLVREVAAPDVGRMGIEILSFTIKDVYDKVDYLSSLGKTQTAVVQRDADIGVAEAERDAGIREAECKKEMLDVKFMADTKIADSKRAFELQKSAFSEEVNIKTAEAQLAYELQGAREQQKIRQEEIEIEVVQRKKQIAVEAQEILRTDKELIATVRRPAEAEAHRIQQIAEGEKVKQVLLAQAEAEKIRKIGEAEAAVIEAMGKAEAERMKLKAEAYQKYGDAAKMALVLEALPQIAAKISAPLTKVDEIVVLSGDNSKVTSEVNRLLAELPASVHALTGVDLSKIPLIKNATGAQV
Turning to B3, the binding entry is on record as “no binding” in test [1] and “binds” in test [2].
